This list was built around the results that the source calls inconclusive (neither active nor inactive); the mix of calls is not that of the screen. For some assays here: Where the call is inconclusive, the potency comes from a doubtful curve fit. For some assays here: A note “side channel” means that the fit belongs to a control or component signal, not to the main read-out. Calls of active or inactive are those of the source. Unless noted, calls follow the shape of the dose curve; as a rule, active = well fitted curve in the direction sought with a large enough effect; inconclusive = small, poorly fitted or top-dose-only effect, or another doubt; inactive = no such curve, though single readings can be large; an effect the other way counts as inactive or inconclusive.
What was measured:
[1] = Cell Viability - Jurkat (AID 426;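 active = dose-dependent loss of cell ATP signal giving a full or clear fitted curve, ranked by lower potency value; inconclusive = weak partial curve or response only at the top dose; inactive = no loss of viability signal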; also: potency is read from the fitted curve at half-maximal effect); settings: qHTS
Outline: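 Jurkat (clone E6-1, human T-cell leukemia) cells, 5000/well in complete medium, were exposed to compound for 40 hr at 37 °C. Viability was read as intracellular ATP by CellTiter-Glo luminescence; AC50 came from Hill fits of concentration-response data.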

[2] = Cell Viability - MRC5 (AID 434; calls by dose curve;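 also: potency is read from the fitted curve at half-maximal effect; potency reflects cytotoxicity seen as loss of intracellular ATP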); settings: MRC5 lung fibroblast viability, qHTS
Outline: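 qHTS cytotoxicity in human lung fibroblast MRC5 cells; 40 hr treatment, 37 °C; cellular ATP by luciferase luminescence; DMSO = 0%, 100 uM tamoxifen = 100% inhibition; Hill-fit AC50.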

[3] = target: Endonuclease 4 (Escherichia coli (strain K12)) (UniProt P0A6C1); test: Counterscreen for APE1 Inhibitors: qHTS Validation Assay for Inhibitors of Endonuclease IV (AID 1708); settings: E. coli endonuclease IV, DNA cleavage fluorescence; series mostly up to 57.1 µM
Outline: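 Enzymatic AP-site incision assay using a double-stranded THF substrate labelled with TAMRA and BHQ-2; released fluorescence signals activity. Enzyme 2 nM, substrate 50 nM, 15 min compound preincubation.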

[4] = qHTS for differential inhibitors of proliferation of Plasmodium falciparum line 7G8 (AID 1815); settings: Plasmodium falciparum 7G8 proliferation inhibition; series mostly up to 28.7 µM;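 also: potency is read from the fitted curve at half-maximal effect; parasite growth measured after three days of incubation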
[5] = qHTS for differential inhibitors of proliferation of Plasmodium falciparum line 3D7 (AID 1876); also: potency is read from the fitted curve at half-maximal effect; settings: P. falciparum 3D7 proliferation inhibition; series mostly up to 28.7 µM
[6] = qHTS for differential inhibitors of proliferation of Plasmodium falciparum line D10 (AID 1877); settings: series mostly up to 28.7 µM;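 also: potency is read from the fitted curve at half-maximal effect; parasites grown with compound for 72 h before DNA staining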
[7] = qHTS for differential inhibitors of proliferation of Plasmodium falciparum line Dd2 (AID 1882); settings: Potency: Plasmodium falciparum Dd2 proliferation inhibition; series mostly up to 28.7 µM; also: potency is read from the fitted curve at half-maximal effect; nearly all actives have a fitted effect of over 65% in size
Outline: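 SYBR Green I DNA fluorescence read-out, ex 485/em 535 nm. Signals were normalized to 0.29 uM artemisinin and DMSO wells, then corrected using vehicle-only plates flanking each stack. Parasite growth ran 72 h in erythrocytes before lysis.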

[8] = qHTS for differential inhibitors of proliferation of Plasmodium falciparum line HB3 (AID 1886); settings: Potency: Plasmodium falciparum HB3 proliferation inhibition; series mostly up to 28.7 µM;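 also: potency is read from the fitted curve at half-maximal effect; parasites grown with compound for 72 h before SYBR Green readout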
[9] = qHTS Assay for Identification of Small Molecule Inducers of Hypoxia Response (AID 2120; active = well fitted curve in the direction sought with a large enough effect in the signal ratio, with a control signal flat, not every such curve was filed as active; inconclusive = small, poorly fitted or top-dose-only effect, or a change in a side signal; inactive = no such curve, though single readings can be large or run the other way; the % refers to the signal ratio; also: potency is read from the fitted curve at half-maximal effect); settings: hypoxia response reporter cells, beta-lactamase ratio readout; series mostly up to 104 µM
Outline: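 HRE-beta-lactamase reporter in CellSensor HRE-bla ME-180 cells, 2500 cells/well in Opti-MEM with 0.5% dialyzed FBS; compounds tested as titration series, 17 h at 37 degrees C. CCF4 substrate 2.5 h at room temperature; AC50 from 460/530 nm ratio.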

[10] = target: Ferritin light chain (Equus caballus) (UniProt P02791); test: qHTS Validation Assay for Identification of Novel General Anesthetics (AID 2323); settings: horse apoferritin, anesthetic-site fluorescent probe displacement; series mostly up to 76.9 µM; also: potency is read from the fitted curve at half-maximal effect
UniProt P02791, sequence (P02791 whole entry, looked up): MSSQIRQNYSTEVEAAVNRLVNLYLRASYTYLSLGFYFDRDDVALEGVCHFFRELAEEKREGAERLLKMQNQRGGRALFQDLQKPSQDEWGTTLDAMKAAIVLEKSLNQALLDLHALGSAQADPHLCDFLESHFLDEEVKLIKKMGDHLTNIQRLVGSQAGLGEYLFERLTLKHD
Outline: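 10 uM horse-spleen apoferritin + 1-AMA (50% saturated, PBS); cpd pin-transferred, 10 min RT. Ex 380/Em 535 nm endpoint. Activity normalized between free 1-AMA and 1-AMA/apoferritin; 4-parameter Hill fit of concentration-response.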

[11] = target: RecQ-like DNA helicase BLM (Homo sapiens) (UniProt P54132); test: qHTS Validation Assay for Inhibitors of Bloom's syndrome helicase (BLM) (AID 2364); settings: BLM helicase DNA unwinding, fluorescence, in vitro; series mostly up to 57.1 µM; also: potency is read from the fitted curve at half-maximal effect
UniProt P54132, sequence (P54132 whole entry, looked up): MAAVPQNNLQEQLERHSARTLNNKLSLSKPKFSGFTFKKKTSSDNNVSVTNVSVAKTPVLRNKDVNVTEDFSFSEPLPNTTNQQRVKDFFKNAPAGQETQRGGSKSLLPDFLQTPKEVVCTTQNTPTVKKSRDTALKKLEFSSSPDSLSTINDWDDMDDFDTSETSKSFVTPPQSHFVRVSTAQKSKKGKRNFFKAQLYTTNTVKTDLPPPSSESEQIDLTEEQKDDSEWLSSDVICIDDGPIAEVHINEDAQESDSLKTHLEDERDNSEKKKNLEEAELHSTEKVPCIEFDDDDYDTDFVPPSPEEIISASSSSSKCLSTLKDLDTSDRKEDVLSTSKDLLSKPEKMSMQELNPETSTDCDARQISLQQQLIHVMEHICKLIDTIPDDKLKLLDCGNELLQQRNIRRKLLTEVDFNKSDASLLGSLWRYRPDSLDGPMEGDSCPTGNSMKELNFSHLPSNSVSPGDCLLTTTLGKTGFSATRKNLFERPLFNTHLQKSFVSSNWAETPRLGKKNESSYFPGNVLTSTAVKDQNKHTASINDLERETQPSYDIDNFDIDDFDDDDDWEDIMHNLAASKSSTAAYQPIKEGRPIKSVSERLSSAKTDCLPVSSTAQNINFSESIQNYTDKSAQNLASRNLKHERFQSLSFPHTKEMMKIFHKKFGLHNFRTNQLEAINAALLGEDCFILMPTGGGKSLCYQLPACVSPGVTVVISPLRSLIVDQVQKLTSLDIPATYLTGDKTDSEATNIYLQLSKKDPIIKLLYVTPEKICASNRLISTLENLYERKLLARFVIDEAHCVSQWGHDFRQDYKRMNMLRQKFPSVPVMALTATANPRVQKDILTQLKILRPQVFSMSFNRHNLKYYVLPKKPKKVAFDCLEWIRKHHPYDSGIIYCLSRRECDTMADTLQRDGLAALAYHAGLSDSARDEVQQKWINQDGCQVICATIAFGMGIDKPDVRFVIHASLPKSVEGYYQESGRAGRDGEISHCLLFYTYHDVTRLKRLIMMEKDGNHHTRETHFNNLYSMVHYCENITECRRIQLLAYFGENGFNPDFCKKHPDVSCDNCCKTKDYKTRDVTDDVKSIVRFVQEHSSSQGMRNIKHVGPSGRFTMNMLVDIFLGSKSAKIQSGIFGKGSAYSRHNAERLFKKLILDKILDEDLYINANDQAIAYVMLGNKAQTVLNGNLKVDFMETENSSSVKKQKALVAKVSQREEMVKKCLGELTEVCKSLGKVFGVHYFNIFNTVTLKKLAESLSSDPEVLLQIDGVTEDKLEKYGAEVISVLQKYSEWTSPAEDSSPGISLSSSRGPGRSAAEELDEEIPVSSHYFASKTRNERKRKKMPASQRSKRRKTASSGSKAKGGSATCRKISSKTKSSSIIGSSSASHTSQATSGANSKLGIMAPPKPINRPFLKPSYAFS
Outline: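 Forked 20-bp duplex substrate (200 nM, TAMRA/BHQ-2) plus 2 mM ATP added after 15 min compound preincubation with 50 nM enzyme, pH 8.0, poly(dI-dC) 2.5 ug/ml. Strand separation followed by fluorescence (525/598 nm) over 2 h, normalized to enzyme-free and DMSO controls.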

[12] = High Content Imaging Cell-Based qHTS for Inhibitors of the mTORC1 Signaling Pathway in MEF (Tsc2-/-, p53-/-) Cells (AID 2666); settings: series mostly up to 38.3 µM
Outline: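 Cells were plated, dosed with compound after 24 hrs, and incubated another 24 hrs at 37 degree Celsius. Fixed cells were immunostained for phospho-rpS6 Ser235/236 and counterstained, and the normalized signal was scored as % active cells against rapamycin and DMSO controls.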

[13] = Validation screen for small molecules that induce DNA re-replication in MCF 10A normal breast cells (AID 463097); settings: MCF 10A cells, DNA re-replication phenotype imaging; series mostly up to 46.1 µM; also: potency is read from the fitted curve at half-maximal effect; nearly all actives have a fitted effect of over 60% in size
Outline: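 250 MCF 10A cells/well; compound pin-transferred; 48 hr, 37 C, 5% CO2; Hoechst 40 min; imaged 405/500-530 nm. Hits = more high-intensity nuclei.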

[14] = Quantitative high throughput screen for delayed death inhibitors of the malarial parasite plastid, 96 hour incubation (AID 488745); settings: Plasmodium falciparum growth; series mostly up to 28.7 µM; also: potency is read from the fitted curve at half-maximal effect; nearly all actives have a fitted effect of over 70% in size
Outline: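 P. falciparum carrying an integrated firefly luciferase reporter, grown in erythrocytes (2% hematocrit, 0.1% parasitemia final) in RPMI 1640/0.5% Albumax, was exposed to compound for 96 h (two generations) at 37 C, 5% CO2. Luminescence decrease indicated growth inhibition.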

[15] = Quantitative high throughput screen for delayed death inhibitors of the malarial parasite plastid, 48 hour incubation (AID 488752); settings: Plasmodium falciparum growth; series mostly up to 28.7 µM; also: potency is read from the fitted curve at half-maximal effect; nearly all actives have a fitted effect of over 65% in size
Outline: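 Erythrocytes infected with P. falciparum carrying an integrated firefly luciferase reporter (2% hematocrit, 0.1% parasitemia final) were exposed to compounds in RPMI 1640/0.5% Albumax for 48 h at 37 C, 5% CO2. Growth inhibition was scored as reduced luminescence.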

[16] = target: Thioredoxin reductase 1, cytoplasmic (Rattus norvegicus) (UniProt O89049); test: qHTS Assay for Substrates of Mammalian Selenoprotein Thioredoxin Reductase 1 (TrxR1) (AID 488772); settings: purified TrxR1, NADPH consumption substrate assay;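 also: NADPH fluorescence in the first read after selenite addition and not the 8 min delta; potency is read from the fitted curve at half-maximal effect; a drop in NADPH fluorescence below the no-compound background marks a TrxR1 substrate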
UniProt O89049, sequence (O89049 whole entry, looked up): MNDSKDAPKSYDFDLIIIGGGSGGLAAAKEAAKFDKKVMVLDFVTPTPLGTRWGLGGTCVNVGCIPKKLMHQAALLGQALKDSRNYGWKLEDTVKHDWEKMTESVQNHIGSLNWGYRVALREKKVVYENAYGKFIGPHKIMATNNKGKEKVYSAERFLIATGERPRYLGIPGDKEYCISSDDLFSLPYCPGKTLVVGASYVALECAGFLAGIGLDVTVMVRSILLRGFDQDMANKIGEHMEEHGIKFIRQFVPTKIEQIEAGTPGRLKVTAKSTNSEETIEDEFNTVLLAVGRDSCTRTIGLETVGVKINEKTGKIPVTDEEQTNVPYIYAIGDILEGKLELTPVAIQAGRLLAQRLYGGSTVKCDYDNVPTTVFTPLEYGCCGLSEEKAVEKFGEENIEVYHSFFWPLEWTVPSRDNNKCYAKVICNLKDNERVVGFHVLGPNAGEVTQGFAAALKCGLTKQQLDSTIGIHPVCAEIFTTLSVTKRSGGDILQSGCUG
Outline: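 Quantitative HTS in Tris-HCl buffer at pH 7.5 with EDTA and Tween-20, using rat TrxR1, 400 uM NADPH and 400 uM selenite (final). A fall in initial NADPH fluorescence relative to background marked substrate behaviour.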

[17] = target: Thioredoxin reductase 1, cytoplasmic (Rattus norvegicus) (UniProt O89049); test: qHTS Assay for Inhibitors of Mammalian Selenoprotein Thioredoxin Reductase 1 (TrxR1) (AID 488773); settings: purified TrxR1 enzyme activity; Potency: inhibition; series mostly up to 57.1 µM; also: potency is read from the fitted curve at half-maximal effect; nearly all actives have a fitted effect of over 40% in size
Outline: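 Steps: enzyme (90 nM) plus NADPH (400 uM final), 5 min at ~22 deg C; compound added, 15 min; selenite (400 uM final) added; fluorescence followed for 8 min. Concentration-response curves derived from the normalized delta values.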

[18] = target: D(1A) dopamine receptor (Homo sapiens) (UniProt P21728); test: HTS Assay for Allosteric Agonists of the Human D1 Dopamine Receptor: Primary Screen for Potentiators (AID 488982); settings: HEK293 T-REx D1 inducible cells, calcium flux, kinetic fluorescence; series mostly up to 8.37 µM; also: potency is read from the fitted curve at half-maximal effect
UniProt P21728, sequence (P21728 whole entry, looked up): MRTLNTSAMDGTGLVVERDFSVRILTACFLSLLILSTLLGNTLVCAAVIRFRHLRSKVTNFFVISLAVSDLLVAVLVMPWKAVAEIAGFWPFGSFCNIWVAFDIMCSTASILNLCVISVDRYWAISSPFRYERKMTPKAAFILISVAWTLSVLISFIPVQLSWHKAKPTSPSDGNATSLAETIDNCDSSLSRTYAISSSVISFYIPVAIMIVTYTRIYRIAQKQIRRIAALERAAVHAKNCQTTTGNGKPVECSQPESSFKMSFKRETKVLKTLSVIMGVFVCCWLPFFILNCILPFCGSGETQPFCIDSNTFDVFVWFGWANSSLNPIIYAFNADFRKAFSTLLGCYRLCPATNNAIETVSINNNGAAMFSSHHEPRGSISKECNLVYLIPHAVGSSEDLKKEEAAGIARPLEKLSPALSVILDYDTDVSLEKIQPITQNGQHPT
Outline: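 Calcium flux in an inducible, force-coupled HEK293 Trex D1 line (overnight at 30 C): agonist mode is the 180 s kinetic read after compound; potentiator mode is the following 180 s read after dopamine at EC20.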

[19] = target: D(1A) dopamine receptor (Homo sapiens) (UniProt P21728); test: HTS Assay for Allosteric Agonists of the Human D1 Dopamine Receptor: Primary Screen for Antagonists (AID 488983); settings: D1 receptor cell assay, antagonist mode, qHTS titration; series mostly up to 41.8 µM;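 also: calcium flux response to an EC80 dopamine challenge measured with no-wash dye; potency is read from the fitted curve at half-maximal effect; nearly all actives have a fitted effect of over 65% in size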
Outline: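 Tetracycline-induced HEK293 T-REx cells expressing force-coupled D1 were plated overnight at 30 C, dye-loaded for calcium, and read kinetically. Compounds were pinned in, then an EC80 dopamine challenge followed after 180 s to reveal antagonism.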

CP185 = test: qHTS profiling for inhibitors of Plasmodium falciparum proliferation (AID 504749); also: potency is read from the fitted curve at half-maximal effect; nearly all actives have a fitted effect of over 60% in size; settings: P. falciparum in erythrocytes, SYBR Green DNA, 72 h; series mostly up to 28.7 µM
Outline: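 Three-day growth assay of blood-stage parasites in erythrocytes (0.3% parasitemia, 2.5% hematocrit) at 37 C, 5% CO2, quantified by SYBR Green DNA staining after overnight detergent lysis.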

Measured: Potency
Tags tell the direction and shape of the fitted curve.

CC1=C(/C=C/C(C)=C/C=C/C(C)=C/C(=O)Nc2ccc(O)cc2)C(C)(C)CCC1
inactive: [3]
inconclusive: [9] 39.8 µM [side channel, falling, partial curve] | [10] 14.1 µM [inhibitor, partial curve] | [11] 28.2 µM [inhibitor, partial curve] | [12] 23.3 µM [falling, single point] | [13] 31.6 µM [activator, single point] | [14] 18.5 µM [inhibitor, single point] | [15] 11.7 µM [inhibitor, single point] | [16] 29.9 µM [inhibitor, partial curve, poor fit] | [17] 37.7 µM [inhibitor, single point] | [18] 2.91 µM [activator, single point] | [19] 7.94 µM [activator, partial curve] | CP185 = 10 µM [inhibitor, single point]
active: [1] 2.16 µM | [2] 24.7 µM | [4] 3.55 µM | [5] 11.2 µM | [6] 12.6 µM | [7] 11.2 µM | [8] 12.6 µM
